# According to publication PMC5700166:
# The entries are a selection whose mix differs from that of the whole data set. The list includes weakly bound sequences.
# Molecular target: T1, GST-Ap-NF-kB RHD (UniProt A0A913YAJ5)
# T1 sequence: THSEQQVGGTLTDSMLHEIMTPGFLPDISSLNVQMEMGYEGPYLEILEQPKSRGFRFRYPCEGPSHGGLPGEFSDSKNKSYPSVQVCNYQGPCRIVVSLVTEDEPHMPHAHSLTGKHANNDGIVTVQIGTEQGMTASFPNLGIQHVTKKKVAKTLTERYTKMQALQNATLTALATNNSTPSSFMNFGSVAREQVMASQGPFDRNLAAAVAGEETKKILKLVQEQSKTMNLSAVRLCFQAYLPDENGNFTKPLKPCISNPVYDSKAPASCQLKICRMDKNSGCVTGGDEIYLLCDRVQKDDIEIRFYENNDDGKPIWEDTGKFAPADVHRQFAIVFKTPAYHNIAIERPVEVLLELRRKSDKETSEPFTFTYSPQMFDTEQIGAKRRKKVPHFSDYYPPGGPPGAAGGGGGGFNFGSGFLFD
# Assay: protein-binding microarray (PBM)
# Settings: PBM: ~300 nM protein, 6 mM HEPES pH 7.8, 80 mM KCl, 0.5 mM EDTA, 0.5 mM EGTA, 6% glycerol, 35 ng/ul poly-dIdC, 1% milk, 1 h, room temperature; high values mean tight binding; double strand, one strand shown
row,Sequence,binding signal
1,CCGATTAACATCACCACCCCCCCTGATGTTAATCGGGTCTTGATTCGCTTGACGCTGCTG,4.06 z-score
2,CCGATTAACATCAAGAATTCCCGTGATGTTAATCGGGTCTTGATTCGCTTGACGCTGCTG,4.85 z-score
3,CCGATTAACATCACAACACCCCCTGATGTTAATCGGGTCTTGATTCGCTTGACGCTGCTG,5.03 z-score
4,CCGATTAACATCAGGGGGTAGAATGATGTTAATCGGGTCTTGATTCGCTTGACGCTGCTG,4.45 z-score
5,CCGATTAACATCACGTACTTCCCTGATGTTAATCGGGTCTTGATTCGCTTGACGCTGCTG,1.66 z-score
6,CCGATTAACATCACGGGAACCCCTGATGTTAATCGGGTCTTGATTCGCTTGACGCTGCTG,5.04 z-score
7,CCGATTAACATCAATTGGGAAAATGATGTTAATCGGGTCTTGATTCGCTTGACGCTGCTG,1.52 z-score
8,CCGATTAACATCAACGGGAATTCTGATGTTAATCGGGTCTTGATTCGCTTGACGCTGCTG,4.32 z-score
9,CCGATTAACATCACATTGGGAAATGATGTTAATCGGGTCTTGATTCGCTTGACGCTGCTG,0.714 z-score
10,CCGATTAACATCACAGAAACCCCTGATGTTAATCGGGTCTTGATTCGCTTGACGCTGCTG,5.66 z-score
11,CCGATTAACATCAAGGGGGTACTTGATGTTAATCGGGTCTTGATTCGCTTGACGCTGCTG,4.81 z-score
12,CCGATTAACATCAGGGACGGAAATGATGTTAATCGGGTCTTGATTCGCTTGACGCTGCTG,2.7 z-score
13,CCGATTAACATCACCTATTCCCCTGATGTTAATCGGGTCTTGATTCGCTTGACGCTGCTG,5.73 z-score

# Molecular target: T2, GST-Nv-NF-kB (Cys allele) (UniProt E5G601)
# T2 sequence: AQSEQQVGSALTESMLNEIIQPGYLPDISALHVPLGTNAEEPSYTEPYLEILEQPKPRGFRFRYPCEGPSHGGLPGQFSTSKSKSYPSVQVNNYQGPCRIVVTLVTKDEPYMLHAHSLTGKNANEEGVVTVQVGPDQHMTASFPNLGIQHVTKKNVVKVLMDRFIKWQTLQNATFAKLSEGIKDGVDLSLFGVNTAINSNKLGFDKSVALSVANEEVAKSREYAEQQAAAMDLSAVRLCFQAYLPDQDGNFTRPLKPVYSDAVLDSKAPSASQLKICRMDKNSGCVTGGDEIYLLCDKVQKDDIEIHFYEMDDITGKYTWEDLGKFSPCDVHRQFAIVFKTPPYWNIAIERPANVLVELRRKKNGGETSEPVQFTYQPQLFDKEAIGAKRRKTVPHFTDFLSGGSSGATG
# Assay: protein-binding microarray (PBM)
# Settings: PBM: ~300 nM protein, 6 mM HEPES pH 7.8, 80 mM KCl, 0.5 mM EDTA, 0.5 mM EGTA, 6% glycerol, 35 ng/ul poly-dIdC, 1% milk, 1 h, room temperature; Ap Aiptasia and Nv Nematostella (sea anemones) / Co Capsaspora / Aq Amphimedon (sponge) / Dm Drosophila / Hu human; RHD is the Rel homology domain; high values mean tight binding; most listed sequences are background and not binding sites; double strand, one strand shown
row,Sequence,binding signal
1,CCGATTAACATCAGGGGGAACAATGATGTTAATCGGGTCTTGATTCGCTTGACGCTGCTG,5.75 z-score
2,CCGATTAACATCAAGTCCCCCCCTGATGTTAATCGGGTCTTGATTCGCTTGACGCTGCTG,4.81 z-score
3,CCGATTAACATCACACATTTCCCTGATGTTAATCGGGTCTTGATTCGCTTGACGCTGCTG,4.57 z-score
4,CCGATTAACATCAGGGGGTTTAATGATGTTAATCGGGTCTTGATTCGCTTGACGCTGCTG,5.26 z-score
5,CCGATTAACATCAAATATCCCCATGATGTTAATCGGGTCTTGATTCGCTTGACGCTGCTG,6.83 z-score
6,CCGATTAACATCAAAGAAATCCCTGATGTTAATCGGGTCTTGATTCGCTTGACGCTGCTG,4.34 z-score
7,CCGATTAACATCAGGACAGCCCCTGATGTTAATCGGGTCTTGATTCGCTTGACGCTGCTG,5.09 z-score
8,CCGATTAACATCACGGAACTCCCTGATGTTAATCGGGTCTTGATTCGCTTGACGCTGCTG,3.34 z-score
9,CCGATTAACATCAGGGGGTGGTATGATGTTAATCGGGTCTTGATTCGCTTGACGCTGCTG,2.77 z-score
10,CCGATTAACATCAGGGGGATTACTGATGTTAATCGGGTCTTGATTCGCTTGACGCTGCTG,7.64 z-score
11,CCGATTAACATCACGAAAACCCCTGATGTTAATCGGGTCTTGATTCGCTTGACGCTGCTG,5.36 z-score
12,CCGATTAACATCAGGAATTACCCTGATGTTAATCGGGTCTTGATTCGCTTGACGCTGCTG,7.58 z-score
13,CCGATTAACATCAAATACTCCCCTGATGTTAATCGGGTCTTGATTCGCTTGACGCTGCTG,5.48 z-score
14,CCGATTAACATCAGGGGGAAGTATGATGTTAATCGGGTCTTGATTCGCTTGACGCTGCTG,6.23 z-score
15,CCGATTAACATCAGGCATTTCCCTGATGTTAATCGGGTCTTGATTCGCTTGACGCTGCTG,5.12 z-score
16,CCGATTAACATCAGGGGTATTTATGATGTTAATCGGGTCTTGATTCGCTTGACGCTGCTG,5.26 z-score
17,CCGATTAACATCAAACCTTCCCCTGATGTTAATCGGGTCTTGATTCGCTTGACGCTGCTG,5.62 z-score
18,CCGATTAACATCAAAAATCCCTATGATGTTAATCGGGTCTTGATTCGCTTGACGCTGCTG,5.21 z-score
19,CCGATTAACATCAAATTTCCCGATGATGTTAATCGGGTCTTGATTCGCTTGACGCTGCTG,4.4 z-score
20,CCGATTAACATCAGGGAAAAAAATGATGTTAATCGGGTCTTGATTCGCTTGACGCTGCTG,5.81 z-score
21,CCGATTAACATCAGGGCAACCCCTGATGTTAATCGGGTCTTGATTCGCTTGACGCTGCTG,2.55 z-score
22,CCGATTAACATCACGGTACGGGGTGATGTTAATCGGGTCTTGATTCGCTTGACGCTGCTG,0.741 z-score
23,CCGATTAACATCAGCCCCCCCCCTGATGTTAATCGGGTCTTGATTCGCTTGACGCTGCTG,5.13 z-score
24,CCGATTAACATCAGGGGACGCACTGATGTTAATCGGGTCTTGATTCGCTTGACGCTGCTG,4.2 z-score
